This is one part of the list.
T1: UNK ZnF1-3 (human, UniProt Q9C0B0 31-174)
T1 sequence: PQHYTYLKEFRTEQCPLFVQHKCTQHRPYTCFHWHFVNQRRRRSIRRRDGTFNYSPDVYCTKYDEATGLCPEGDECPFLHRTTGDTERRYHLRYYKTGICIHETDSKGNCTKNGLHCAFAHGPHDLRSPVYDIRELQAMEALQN

B1: 36856437_36858578_1275_CDS_ENSMUSG00000022837_ENSMUST00000023535|mouse|control|control (ssRNA)
RNA: GGGAGUUCUACAGUCCGACGAUCUUUCUCUUCCAUUUCCCUAUUGUACUUCUCCACUUGACCUGGAUGAAUUAUUUCAAGCAUGUUCAAGCGUGACUCUCGUGAAAGCCUCAUUGCUCUCUGUCUUUGAAGUUGCAAUUUUAACAACAGAGGAUUGAGCAUCA
B2: chr4:123027775:123027776:-_ENSMUSG00000028649_ENSMUST00000154824|mus_hu|FALSE|FALSE (ssRNA)
RNA: GGGAGUUCUACAGUCCGACGAUCUUAUCUUGCUGAGAUAGCAAGUCAAGUUUAUAAAGAAGAUGCAUUUAGGAAUAAUCCUAAAAGAUAAAGCAGGUUUACAACCCUGCACCGCGCAGAAACCCUAUUAAUAGGCUUUUUUUUCAACAGAGGAUUGAGCAUCA
B3: chr4:65274301:65274302:+_ENSMUSG00000051675_ENSMUST00000050850|mus_hu|FALSE|FALSE (ssRNA)
RNA: GGGAGUUCUACAGUCCGACGAUCGUGCAGAAGCUUGGGACGCAGCUGCUCUUCUGUGAAGGACUCCAUGCAGAUGGGGCAUUCUAGCACUUCCCGGAGGGCAUCCAGGUUCAGGUGAGAAGCUGCUGCUGCAGCCAUUGCUCUCAACAGAGGAUUGAGCAUCA
B4: chr1:65217810:65217811:-_ENSMUSG00000025950_ENSMUST00000097709|mus_hu|FALSE|FALSE (ssRNA)
RNA: GGGAGUUCUACAGUCCGACGAUCAGCUUCUGCAGCAUCCUUGGUGACUUGGUCGUUGGUGGCAUCACGAUUCUCUAUGCCUAAAUCAUAGCUAUGUAGAUCCAAUUCCACGUAGGGAAAAAUGAGUUUCUCUUUAAUCAAUUCCAACAGAGGAUUGAGCAUCA
B5: chr4:115894766:115894767:+_ENSMUSG00000028698_ENSMUST00000030464|mus_hu|mus_mus_mus_hu_True|98_108 (ssRNA)
RNA: GGGAGUUCUACAGUCCGACGAUCUUCACACGGAAAUGUACUUGGGGGUUUUCCAACGGCCAGUACCAGUCCGGCCAAACUACCCGAACAGGGUCCUCCCCCUCUCUCCUACAGAACACAACAAAAUGCCCCCGAACUUUCAAGCAACAGAGGAUUGAGCAUCA
B6: chr3:196311160:196311161:+_ENSG00000174013_ENST00000440469|hu_hu|FALSE|FALSE (ssRNA)
RNA: GGGAGUUCUACAGUCCGACGAUCCUGUCUGUCAUCACAAGAAAGCCACUGUCAUCCGUCCAAAGGUUUUCCAAGGUAAACCAAAGUCACUUCUGUGUUGCCAUAUACAGCAGAAACUGCUGGGUAUAAGCAGACCUUUGGAAGCAACAGAGGAUUGAGCAUCA

molecular target: T1, UNK ZnF1-3; test: nsRBNS (natural sequence RNA bind-n-seq); RBNS binding buffer (assumed for nsRBNS): 25 mM Tris pH 7.5, 150 mM KCl, 3 mM MgCl2, 0.01% Triton X-100, 500 ug/ml BSA, 20 U/ml SUPERase-In, 4 C; UNK is unkempt and MSI1 is Musashi-1; names of the RNAs are library labels; protein concentration not given here; high values mean tight binding

Row | Binder | binding signal [enrichment R]
1 | B1 | 0.434
2 | B2 | 0.401
3 | B3 | 0.933
4 | B4 | 1.58
5 | B5 | 1.19
6 | B6 | 0.769
